Assay results taken from the supplement of paper PMC3334620.
In all, about 33,000 sequences were measured (“E-score (-0.5 to 0.5)”: median about -0.041, highest 2% from about 0.37 on). Some of the results follow.

The sequences below were run against T1, Ecm22 (UniProt Q05958) (assay: PBM E-score (8-mer binding enrichment) (E-score (-0.5 to 0.5)); higher = stronger / more preferred TF binding; most listed sequences are background and not binding sites). Settings: protein concentration: 200 nM; construct: GST-full length.
T1 sequence: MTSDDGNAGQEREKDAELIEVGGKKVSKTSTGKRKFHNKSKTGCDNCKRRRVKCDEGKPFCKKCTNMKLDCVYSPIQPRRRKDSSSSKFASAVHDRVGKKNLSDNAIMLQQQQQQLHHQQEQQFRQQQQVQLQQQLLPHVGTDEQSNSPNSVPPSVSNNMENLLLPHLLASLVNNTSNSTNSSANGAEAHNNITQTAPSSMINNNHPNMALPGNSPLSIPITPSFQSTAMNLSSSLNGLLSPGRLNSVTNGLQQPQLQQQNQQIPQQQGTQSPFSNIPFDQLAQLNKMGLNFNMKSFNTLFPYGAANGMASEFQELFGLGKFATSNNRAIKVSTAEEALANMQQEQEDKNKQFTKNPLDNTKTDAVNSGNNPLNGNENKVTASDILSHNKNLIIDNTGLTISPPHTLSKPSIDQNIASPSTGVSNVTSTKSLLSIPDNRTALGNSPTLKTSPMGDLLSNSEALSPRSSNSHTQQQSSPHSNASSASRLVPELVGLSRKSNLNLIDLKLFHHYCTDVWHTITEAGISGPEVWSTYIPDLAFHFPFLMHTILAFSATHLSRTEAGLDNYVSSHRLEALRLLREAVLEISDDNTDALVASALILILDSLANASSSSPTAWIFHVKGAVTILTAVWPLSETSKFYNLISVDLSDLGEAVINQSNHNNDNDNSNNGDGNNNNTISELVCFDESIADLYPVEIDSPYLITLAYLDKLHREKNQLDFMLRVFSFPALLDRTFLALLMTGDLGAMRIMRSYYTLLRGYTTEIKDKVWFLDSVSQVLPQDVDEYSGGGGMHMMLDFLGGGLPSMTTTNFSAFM
How it was run: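 Full-length yeast transcription factors or their DNA-binding domains, GST-tagged and expressed with PURExpress, were applied at about 100-200 nM to universal all-10-mer Agilent arrays. These arrays had been made double-stranded by primer extension on fresh or once-stripped slides. Detection used fluorescent anti-GST, normalisation used masliner, and E-scores for ungapped eight-base words pooled with reverse complements came from the Universal PBM Analysis Suite.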

Sequence	PBM E-score
AACTGACC	-0.172
AAGGTGCT	-0.295
CCCAATGA	-0.302
TCGAAAGA	0.076
CTAAGCAC	-0.177
GACTAGGC	0.00611
CCATCCTA	0.0862
CGGGCCAC	-0.174
TAGAATCA	0.0335
ATTAACCC	0.0324
ACTAGTGA	-0.246
CTCCCTTA	-0.267
CCCATGTC	-0.297
GCCCAAGC	-0.185
CACGGGAC	0.0405
AATGCGAC	0.24
CTAAATTA	0.0225
GCAGCCGC	-0.0784
GGTCGCCA	-0.0319
GCTTGGAC	-0.237
AGTAGCGC	0.0676
AAAACTTG	0.0503
CTCGGGGA	-0.129
AAGACATA	-0.0306
AACAAGTC	-0.0928

Sequence	PBM E-score
ACATCTAT	0.0869
CTCCAGAA	-0.0868
AGCACCCC	-0.107
GGACATAA	-0.0776
CGCGGGAA	0.132
AGTGATGA	-0.2
GTGAGTTA	-0.171
AGTATTAA	0.0259
CTCGCAAG	0.17
CCGCCGAA	-0.0118
ACCCAGGC	-0.048
GGAGATCA	-0.0786
CAACTGAA	0.0737
ATGGGGCA	-0.174
CTCGCCCC	-0.117
TAGTAAGA	-0.159
ATAATAAG	0.072
CCTCACTC	0.0136
CGGCGGTC	-0.0239
AGGCTAAC	-0.0729
GTGTTGTA	0.0221
CAACACCC	-0.24
CAGTGTCC	-0.112
CCACCTTA	-0.231
GTCAGGAA	0.0153

Sequence	PBM E-score
ATAGCTTG	-0.0854
GTAAAATA	0.0885
AACCGGCT	-0.0879
ACGCTGAT	0.0819
AATGAGCG	0.116
CGATATCC	0.0748
GCGTCCAC	-0.223
AATTGGTG	0.00933
ACGGCGTC	0.0206
CGTATAAC	0.473
ATACTGCC	-0.0398
CATTTCCA	-0.089
GCTTAAAA	0.00971
ACCGACCC	0.0883
ACCGCAGT	-0.0919
GAGCCCGA	0.0441
AACCACTG	-0.228
AAAAGGAC	-0.0347
AAATGCCG	0.0693
CCGAACCA	-0.0831
TCGGAGCA	-0.0248
ACCTGAGA	-0.205
AGCCCGCA	-0.133
AATGATTC	0.162
CCCTCTAC	-0.118

Sequence	PBM E-score
CAAACGGC	0.191
CCTGTGAC	-0.223
ATTGAAGG	-0.198
CCGGCATC	-0.183
AAGCTGAC	-0.146
GAGATTGC	-0.161
AGCGTAGC	0.0771
GAGTATTA	0.0153
AATAGCGG	-0.0162
GCAGAGTA	0.0363
CTCCGCCC	-0.295
CCTTCGTC	0.0674
CGTAATCA	0.18
CCGCCCCA	-0.0386
AGTGTCTA	-0.0224
ACTCCCCA	-0.3
CTTACTCC	0.00936
GTGGCAAC	-0.0814
ATGGGTAA	-0.0404
CAACACCG	-0.222
CTATAGTC	0.0966
AACCGTAT	0.341
ATTCCTCG	0.264
AAGAGTAA	-0.152
ACTTACAA	0.0916

Sequence	PBM E-score
CCTAAGGA	-0.01
AGGCGACT	-0.171
CCCTATGC	-0.263
AGAAAGCG	0.0413
ACTTCGGA	0.139
CACCCGCG	-0.0941
CGGGCAGC	0.0685
GCGGGTCA	-0.00545
AGCCGTTA	0.0667
GCCGCGGA	0.0026
CTAGTCAG	-0.0973
GAGACTAA	0.0911
TATTCCCA	0.0427
CAGAGTCA	-0.226
AGATGGTC	-0.163
GGCCCTAA	-0.269
CGGATCCG	0.187
TATAGGGA	0.00027
CCCCGTTA	-0.0703
AACGCTCT	-0.0105
CAGCCCAG	-0.27
AGGAGGTC	-0.219
CGATCTTC	0.164
AACTACGG	0.0428
GCGATTCC	-0.111

Sequence	PBM E-score
ACATACCT	-0.141
GTACTGAC	0.0171
CTTACAAG	-0.296
AAATTTGA	0.144
CTTCTCCC	-0.00779
AGTCTCGA	0.0736
GTCCAGCA	-0.169
CTGATACC	-0.091
GACTCATA	0.00475
AGAAATCG	0.0318
TCGCGTAA	0.255
CGGCGCTC	0.136
ATAATACG	0.349
AACGGAAA	0.22
ACATACTG	0.0684
CACTCACG	0.078
CAGGCCCG	-0.143
CGGTGCTC	0.124
CGCGAAAA	0.194
CTTTTGAA	-0.179
CCTAATCG	0.11
CTTGGAGA	-0.0637
AAGTCTCA	-0.319
CTAATGAA	0.0389
AAAGATAG	-0.191

Sequence	PBM E-score
AACGCATC	0.101
AGTTAAGC	0.0271
ACTAACAC	0.141
CGGCCTGA	-0.194
AAGCGGCC	-0.161
ATTTAGAA	-0.17
CCGTACCG	0.455
CTGGTCAA	-0.199
CTAGACCA	-0.149
ACGGAAGA	0.152
ATATTATA	0.212
ATACACCG	0.109
CACTCCTC	0.0492
CTACGACC	0.413
AGCTCCGG	-0.133
CCGGTCTA	-0.0788
AACCATTA	0.00626
AGGAGCTC	-0.0307
CAGGTCTA	-0.167
AGACCATC	-0.213
GAGGATGA	-0.0604
GGACCCAC	-0.0953
